# The whole screen tested about 110,000 compounds, of which about 40 (0.04%) were called active. This list was built around the results that the source calls inconclusive (neither active nor inactive); the mix of calls is not that of the screen. Calls follow the shape of the dose curve; as a rule, active = well fitted curve in the direction sought with a large enough effect in the signal ratio (not every such curve was filed as active); inconclusive = small, poorly fitted or top-dose-only effect, or a change in a side signal; inactive = flat fitted curve, though single readings scatter; the % refers to the signal ratio. Potencies of inconclusive entries are doubtful fits and often do not repeat.
# Assay: IkB Signaling;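 as to IkBa stabilization activation: 0% = basal untreated cells and 100% = reference inhibitor full response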
# Conditions: ABC-DLBCL IkBa-CBG/CBR dual luciferase ratio (green luciferase fused to IkBa over red control in OCI-Ly3 lymphoma cells), 4 h; IkBa stabilization activation: at 57.1 µM (top of the series), scaled: untreated 0%, proteasome inhibitor 100% unless noted
# Outline: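 Luminescence ratio of IκBα-fused green versus native red beetle luciferase in OCI-Ly3 cells, 4 h post-doxycycline with compound; red signal alone, scaled from basal (0%) to zero light (-100%), flagged nonspecific or cytotoxic effects.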
# Potency is read from the fitted curve at half-maximal effect.
Compound,IkBa stabilization activation,Potency
Cc1cc(C)c2sc(N(Cc3cccnc3)C(=O)CCS(=O)(=O)c3ccccc3)nc2c1,inactive,–
Cc1cccc(CSc2cn(CC(=O)N3CCCCC3)c3ccccc23)c1,inconclusive: 0.045% [signal inhibitor],–
N/C(=N\O)c1ccc(NC(=O)c2cccs2)cc1,–,"inconclusive: 12.6 µM [signal inhibitor, partial curve]"
Cc1ccc(S(=O)(=O)OC2CCN(C)CC2)cc1,"inactive: -0.0121% [at 11.4 µM, scaled: untreated 0%, proteasome inhibitor 100%]",–
Clc1ccc(Cn2ncc3c(N4CCOCC4)ncnc32)cc1,inconclusive: 1.67% [signal inhibitor],–
Cn1c(=O)n(C)c2cc(NS(=O)(=O)c3ccc(Br)cc3)c(NCc3ccccc3)cc21,inconclusive: 13.6% [signal inhibitor],–
CCc1ccc(-n2nc(C)c3c(C)cc(=O)n(CC(=O)Nc4ccc(C)c(F)c4)c32)cc1,inactive,–
CCN(CC)CCCNC(=O)c1c(C)oc2ncn(CC(C)C)c(=O)c12,inconclusive: 2.05% [signal inhibitor],–
CCS(=O)(=O)NCCc1csc(C)n1,inactive,–
C[C@H](N)C(=O)OC(C)(C)Cc1ccc(Cl)cc1,inactive,–
CC1CCc2c(sc(NC(=O)CCCOc3ccc(C(C)(C)C)cc3)c2C(N)=O)C1 (stereo not given),–,inconclusive: 20 µM [signal inhibitor]
C=CCOc1ccc2c(c1)c(S(=O)(=O)c1ccc(C)cc1)cn2COC,inconclusive: 1.93% [signal inhibitor],–
COc1cc(Br)c(C2CC(=O)Nc3cc(OC)c(OC)c(OC)c32)cc1OC (stereo not given),inconclusive: 2.29% [signal inhibitor],–
O=c1c2ccccc2nnn1CSc1nnc(-c2cccs2)n1Cc1ccccc1,inconclusive: 1.67% [signal inhibitor],–
Cc1oc(-c2cccc(Br)c2)nc1CN1CCC(C(=O)NCCc2ccc(Cl)cc2)CC1,inconclusive: 2.53% [signal inhibitor],–
CCCC=O,inactive,–
CCOC(=O)c1ccc(N2C(=O)c3n[nH]c(-c4cccs4)c3C2c2cccc(F)c2)cc1 (stereo not given),inconclusive: 13.3% [signal inhibitor],–
O=C(Cn1c(=O)n(Cc2nc(-c3ccccc3)no2)c(=O)c2cc3c(cc21)OCO3)Nc1ccc(Cl)cc1,inconclusive: -0.753% [signal inhibitor],–
Cc1nc(N2CCN(Cc3ccc4c(c3)OCO4)CC2)c2oc3ccccc3c2n1,inconclusive: -1.14% [signal inhibitor],–
OCc1ccccc1OCCOc1ccc(Cl)c2cccnc12,inactive,–
Cc1cc(C)cc(NS(=O)(=O)c2ccc3c(c2)NC(=O)C(C)S3)c1 (stereo not given),inconclusive: 3.67% [signal inhibitor],–
CCn1c(C(=O)N2CCC(C(=O)NCCc3ccc(OC)cc3OC)CC2)cc2sccc21,inconclusive: -0.00641% [signal inhibitor],–
COc1cccc2c1Oc1ncccc1N(C(=O)Nc1ccc(F)c(Cl)c1)C2,inactive,–
CCN(C(=O)c1c(-c2ccccc2)noc1C)c1ccccc1,inactive,–

Compound,IkBa stabilization activation,Potency
Cc1ccc(C)c(CN2C(=O)c3ccccc3S(=O)c3ccc(C(=O)NCc4ccccc4)cc32)c1 (stereo not given),inconclusive: 1.09% [signal inhibitor],–
COc1ccc(NC(=O)c2ccc(-c3nc(CSc4ccccc4)c(C)o3)cc2)cc1OC,inactive,–
O=C(CSc1ncc(-c2ccc(F)cc2)n1Cc1ccco1)Nc1ccc2c(c1)OCO2,–,"inconclusive: 0.794 µM [signal inhibitor, full curve]"
c1ccc(CCCNc2ncnc3nc[nH]c23)cc1,inactive,–
CN(C)S(=O)(=O)c1ccc(C(=O)N2CC(=O)Nc3ccc(Br)cc3C2c2ccc(F)cc2)cc1 (stereo not given),inconclusive: 1.86% [signal inhibitor],–
CCOc1cc(CNc2ccc(O)cc2)ccc1OCc1ccc(Cl)cc1,inconclusive: -7.18% [signal inhibitor],–
CCOc1ccc(CC(=O)NCCc2sc3nc(-c4ccc(OC)cc4)nn3c2C)cc1,inconclusive: 1.3% [signal inhibitor],–
CCN1CCN(c2c(S(=O)(=O)c3ccc(C)c(C)c3)cnc3cc(OC)c(OC)cc23)CC1,inconclusive: 8.29% [signal inhibitor],–
Cc1cc2n(n1)C(c1ccccc1)Nc1ccccc1-2 (stereo not given),inactive,–
CCCCSc1ncnc2c1c(-c1ccccc1)cn2-c1cccc(F)c1,inactive,–
CCN(CC)S(=O)(=O)c1nnc(NC(=O)COc2ccc(Cl)cc2)s1,inconclusive: -0.768% [signal inhibitor],–
CCCCN(CC)CCCNC(=O)c1cc2c(=O)n(C)c3ccccc3c2n1C,inactive,–
Cc1nn(-c2ccccn2)c(C)c1Oc1ccccc1O,inactive,–
COc1ccccc1N1CCN(C(c2ccccc2Cl)c2nnnn2C(C)(C)C)CC1 (stereo not given),inactive,–
COC(=O)c1ccccc1NC(=O)Cn1c(=O)n(Cc2ccc(C(=O)NCc3ccc4c(c3)OCO4)cc2)c(=O)c2ccccc21,inactive,–
Cc1ccc(C)c(N2C(=O)N(Cc3cc(=O)n4ccccc4n3)c3ccccc3S2(=O)=O)c1,inconclusive: 11.1% [signal inhibitor],–
CCOC(=O)c1c(C)oc2ncnc(Nc3ccc(OCC)cc3)c12,inactive,–
CCn1c(SCC(=O)Nc2nccs2)nnc1-c1ccc(S(=O)(=O)N2CCCCC2)cc1,inconclusive: 1.74% [signal inhibitor],–
O=C(CN1C(=O)CCc2cc(S(=O)(=O)N3CCOCC3)ccc21)NCc1ccc(F)cc1,inactive,–
O=C(CSc1nc2c(cnn2-c2ccc(F)cc2)c(=O)[nH]1)N1CCCc2ccccc21,inactive,–
Cc1ccc(CNC(=O)c2ccc3c(c2)nc(C)n3-c2cc(C)cc(C)c2)cc1,inconclusive: -1.29% [signal inhibitor],–
COc1ccc(-n2nnnc2SCC(=O)c2ccc(O)c(O)c2)cc1,inconclusive: -3.33% [signal inhibitor],–
COc1cc(C)ccc1OCCSc1nc2ccc(NC(=O)c3ccc(F)cc3)cc2s1,inconclusive: 1.89% [signal inhibitor],–
COc1cc(OC)cc(C(=O)Nc2ccc3nc(N4CCCCC4)cc(C)c3c2)c1,inconclusive: 0.603% [signal inhibitor],–

Compound,IkBa stabilization activation,Potency
COc1ccc(Cl)cc1NC(=O)CN(C(=O)c1ccco1)C1CCCCC1,inconclusive: 2.23% [signal inhibitor],–
CC(C)Cn1c(=O)c2ccccc2n2c(CCC(=O)N3CCN(c4ccccc4F)CC3)nnc12,inconclusive: -1.05% [signal inhibitor],–
Cc1ccc2nc(-c3ccc(O)cc3)c(Nc3ccc4c(c3)OCCO4)n2c1,inconclusive: -2.22% [signal inhibitor],–
O=C(NCc1ccccc1Cl)C(=O)NCC(c1cccs1)S(=O)(=O)c1cccs1 (stereo not given),inconclusive: 6.52% [signal inhibitor],–
COc1ccccc1N1CCN(C(=O)c2cn(-c3ccccc3)nc2-c2cccnc2)CC1,inconclusive: 0.953% [signal inhibitor],–
Cc1cc(C)n(CCc2nc3c4ccccc4nc(N4CCN(c5ccccc5F)CC4)n3n2)n1,inconclusive: 0.0851% [signal inhibitor],–
Cc1ccc(NC(=O)/C(C#N)=C/c2ccc(C)o2)cc1,–,"inconclusive: 25.1 µM [signal inhibitor, single point]"
CC(C)CCNC(=O)c1ccc2c(c1)NC(=O)C(CS(=O)(=O)Cc1cccc(Br)c1)N2 (stereo not given),inconclusive: 2.14% [signal inhibitor],–
COc1ccc(OCCCCn2c(C3CC(=O)N(c4cccc(Cl)c4)C3)nc3ccccc32)cc1 (stereo not given),inactive,–
COc1ccc(-c2cc(C(F)F)nc(-n3nc(C)cc3C)n2)cc1,inconclusive: 1.15% [signal inhibitor],–
CCOC(=O)C1CCC(CN(Cc2ccc(Cl)cc2)S(=O)(=O)c2ccc(Br)cc2)CC1 (stereo not given),inconclusive: -0.691% [signal inhibitor],–
COc1ccc(-c2onc(C)c2C)cc1S(=O)(=O)N(C)Cc1ccco1,inconclusive: 2.99% [signal inhibitor],–
CCS(=O)(=O)N1CCc2cc(C(=O)NCCc3ccccc3)ccc21,–,"inconclusive: 31.6 µM [signal inhibitor, partial curve]"
COc1ccc(NC(=O)c2sc3nc(C)c(C(=O)Nc4ccc(C)cc4C)c(-c4ccc(C)o4)c3c2N)cc1,inconclusive: 6.66% [signal inhibitor],–
COCCCn1c(=N)c(C(=O)NCc2ccc3c(c2)OCO3)cc2c(=O)n3ccccc3nc21,inactive,–
CSCCNC(=O)c1ccc(C(C)(C)C)cc1,inactive,–
CCc1ccc(NC(=O)CN2C(=O)C3(SCC(=O)N3c3ccccc3)c3ccccc32)cc1 (stereo not given),inconclusive: 13.3% [signal inhibitor],–
CNc1ccc(O)cc1,–,"inconclusive: 6.31 µM [rising, full curve]"
Cc1ccc(Cl)cc1NC(=O)CSC1=Nc2ccccc2C2=NC(Cc3ccccc3)C(=O)N12 (stereo not given),inconclusive: -2.23% [signal inhibitor],–
COc1ccc(C(c2sc3nc(C)nn3c2O)N2CC(C)OC(C)C2)cc1OC (stereo not given),–,"inconclusive: 10 µM [signal inhibitor, partial curve]"
O=C(CCSc1nc(-c2ccco2)cc(C(F)(F)F)n1)N1CCN(c2ccccc2)CC1,inconclusive: 1.84% [signal inhibitor],–
CCCCN(CCCC)CC(O)Cn1cc(/C=C/C(=O)c2ccccc2)c2ccccc21 (stereo not given),inconclusive: 9.34% [signal inhibitor],–
